# Measurements taken from the supplement of paper PMC6135742.
# Counter-ions that a name gives are not always drawn. In all, about 2,600 compounds were measured (“total cell number (DAPI+ nuclei) relative to DMSO vehicle control”: median about -1.4, lowest 2% from about -23 on). This is one part of the list.
# Test system: jimpy (Plp1 jimpy) mouse iPSC-derived oligodendrocyte progenitor cells
# Test: total cell number (DAPI+ nuclei) relative to DMSO vehicle control (SDs above negative control mean); higher = more surviving cells
# Conditions: 10 µM; 3 days
row,Structure (SMILES),total cell number
1,Cc1ccc(S(=O)(=O)NC(=O)NN2CCCCCC2)cc1 [Tolazamide],-0.733
2,CCCN(CCc1ccccc1)C1CCc2c(O)cccc2C1 (racemic) [(±)-PPHT hydrochloride],-2.84
3,CN1CCN(c2c(F)cc3c(=O)c(C(=O)O)cn4c3c2OCN4C)CC1 [Marbofloxacin],2.46
4,COc1ccc(CCNc2nc(N3CCc4cc(OC)c(OC)cc4C3)c3cc(OC)c(OC)cc3n2)cc1OC,-11.2
5,CCCCCCCCCCCCc1ccc(S(=O)(=O)Nc2nncs2)cc1,1.21
6,CCN(CC)CCOC(=O)C(c1ccccc1)c1ccccc1 [Adiphenine HCl],0.0625
7,C[C@H]1[C@H](C)CC[C@]2(C(=O)O)CC[C@]3(C)C(=CC[C@@H]4[C@@]5(C)C[C@@H](O)[C@H](O)[C@@](C)(CO)[C@@H]5CC[C@]43C)[C@H]12 [Asiatic Acid],0.335
8,CCOC(=O)c1ccc(N)cc1 [Benzocaine],-1.12
9,CC(C)C[C@H](C(=O)O)c1cc(-c2ccc(C(F)(F)F)cc2)cc(-c2ccc(C(F)(F)F)cc2)c1,10.7
10,Nc1cc(F)ccc1NC(=O)/C=C/c1cnn(C/C=C/c2ccccc2)c1,-12.1
11,CN(Cc1cnc2nc(N)nc(N)c2n1)c1ccc(C(=O)N[C@@H](CCC(=O)O)C(=O)O)cc1 [Methotrexate],-5.68
12,CCOc1ccc2nc3cc(N)ccc3c(N)c2c1 [Ethacridine lactate monohydrate],-15.2
13,CCCCCCCCCC(=O)NC(CN1CCOCC1)[C@H](O)c1ccccc1 (mixture of isomers),-1.55
14,CN(C)c1ccc(O)c2c1C[C@H]1C[C@H]3[C@H](N(C)C)C(O)=C(C(N)=O)C(=O)[C@@]3(O)C(O)=C1C2=O [Minocycline hydrochloride],-1.32
15,CC(Cc1ccc(O)c(O)c1)(NN)C(=O)O (stereo not drawn) [S-(-)-Carbidopa],-1.61
16,C[N+](C)(C)CCOC(=O)CCC(=O)OCC[N+](C)(C)C [Succinylcholine Chloride Dihydrate],0.679
17,C[N+](C)(C)CCOC(=O)CCC(=O)OCC[N+](C)(C)C [Succinylcholine chloride],-0.486
18,CCN1CCc2nc(N)oc2CC1 [B-HT 933 dihydrochloride],0.337
19,COc1cc(C(C)=O)ccc1O [Apocynin],-0.661
20,C[C@H](NC(=O)C(=O)Nc1ccccc1C(C)(C)C)C(=O)N[C@@H](CC(=O)O)C(=O)COc1c(F)c(F)cc(F)c1F [Emricasan],7.61
21,O=C1CCCC(=O)C1C(=O)c1ccc(C(F)(F)F)cc1[N+](=O)[O-] [Nitisinone],-0.917
22,CC[C@H](C)C[C@H](C)CCCCCCCCC(=O)N[C@H]1C[C@@H](O)[C@@H](NCCN)NC(=O)[C@@H]2[C@@H](O)CCN2C(=O)[C@H]([C@H](O)CCN)NC(=O)[C@H]([C@H](O)[C@@H](O)c2ccc(O)cc2)NC(=O)[C@@H]2C[C@@H](O)CN2C(=O)[C@H]([C@@H](C)O)NC1=O [Caspofungin Acetate],-1.49
23,Nc1ncnc2n[nH]c(Nc3ccc(F)cc3)c12,-5.75
24,CNC(=O)CN(CCN(CCN(CC(=O)[O-])CC(=O)NC)CC(=O)[O-])CC(=O)[O-].[Gd+3] [Gadodiamide],-14.9
25,CN(C)Cc1ccc(S(=O)(=O)n2ccc(/C=C/C(=O)NO)c2)cc1 [Resminostat],-4.82
26,c1ccc(CN(CC2=NCCN2)c2ccccc2)cc1 [Antazoline HCl],0.133

row,Structure (SMILES),total cell number
1,Clc1ccc(N2CCN(Cc3cc4ccccn4n3)CC2)cc1,-1.15
2,O=C(O)C1=CCCN(CCON=C(c2ccccc2)c2ccccc2)C1 [NO-711 hydrochloride],-1.32
3,CN(C)CC/C=C1/c2ccccc2COc2ccc(CC(=O)O)cc21 [Olopatadine HCl],0.218
4,CNC(=N)NCCC[C@H](N)C(=O)O [NG-Monomethyl-L-arginine acetate],-2.17
5,CNC(=O)c1ccc(C)c(-n2c(C)cc(OCc3ccc(F)cc3F)c(Br)c2=O)c1,-0.876
6,Cc1cc(OCc2nnc(SC3CCCC3)n2-c2cccnc2)ccc1-c1ccc(S(C)(=O)=O)cc1,-16.3
7,COCCc1ccc(OCC(O)CNC(C)C)cc1 (racemic) [(±)-Metoprolol (+)-tartrate],-1.34
8,CCCCCCCCCCCC[N+](C)(C)CCOc1ccccc1 [Domiphen Bromide],-16.4
9,Cc1ccc(-n2nc(C(C)(C)C)cc2NC(=O)Nc2ccc(OCCN3CCOCC3)c3ccccc23)cc1 [BIRB 796 (Doramapimod)],-0.00893
10,NC(=O)c1cccc(N)c1 [3-aminobenzamide],1.33
11,CN1C2CCC1CC(OC(=O)C(O)c1ccccc1)C2 (configuration not stated) [Homatropine Bromide],0.583
12,"CC(N)(Cc1ccc(O)c(O)c1)C(=O)O (racemic) [(±)-3-(3,4-dihydroxyphenyl)-2-methyl-DL-alanine]",-2.34
13,CCCOc1ccc(C(=O)OCCN(CC)CC)cc1N [Proparacaine HCl],-0.938
14,CC(C)C[C@H](NC(=O)CNC(=O)c1cc(Cl)ccc1Cl)B1OC(=O)C(CC(=O)O)(CC(=O)O)O1,-12
15,CC[C@@H](CO)NCCN[C@@H](CC)CO [Ethambutol HCl],-0.925
16,"CN(C)CCC(c1ccc(Br)cc1)c1ccccn1 (single isomer, unassigned; (+)) [(+)-Brompheniramine maleate]",-6.24
17,CCN(CC)CCCCNc1ncc2cc(-c3cc(OC)cc(OC)c3)c(NC(=O)NC(C)(C)C)nc2n1,-24.8
18,C[C@@H]1COC(Nc2ccc3ncnc(Nc4ccc(OCc5nccs5)c(Cl)c4)c3c2)=N1 [Varlitinib],-7.68
19,O=C(/C=C/c1ccc(O)c(O)c1)O[C@@H]1C[C@](O)(C(=O)O)C[C@@H](O)[C@H]1O [Chlorogenic Acid],-0.603
20,Oc1cccc(-c2nc(N3CCOCC3)c3oc4ncccc4c3n2)c1,-21
21,"C#CCn1c(=O)c2c(ncn2C)n(C)c1=O [3,7-Dimethyl-1-propargylxanthine]",-1.05
22,N#C/C(=C\c1ccc(O)c(O)c1)C(=O)NCc1ccccc1 [AG-490 (Tyrphostin B42)],-15
23,C#C[C@]1(O)CC[C@H]2[C@@H]3CCC4=CC(=O)CC[C@@H]4[C@H]3CC[C@@]21CC [Levonorgestrel],-0.33
24,CCC(=O)Nc1cccc(Oc2nc(Nc3ccc(N4CCN(C)CC4)cc3OC)ncc2Cl)c1,-15.2
25,C=CC(=O)Nc1cccc(Nc2nc(Nc3ccc(OCCOC)cc3)ncc2F)c1,-15.3
26,O=C(O)CP(=O)(O)O [Phosphonoacetic acid],-2.04

row,Structure (SMILES),total cell number
1,Cn1ccc2cc3c(cc21)CCN3C(=O)Nc1cccnc1,-1.53
2,CCCCN(CC)c1nc(C)nc2c1c(C)cn2-c1c(C)cc(C)cc1C,2.06
3,N#CC(C#N)=C(N)/C(C#N)=C/c1cc(O)c(O)c(O)c1 [Tyrphostin 51],-1.44
4,CCN(CC)CCCCCCCCOC(=O)c1cc(OC)c(OC)c(OC)c1 [TMB-8 hydrochloride],2.1
5,NNC(=O)CSc1nc2scc(-c3ccccc3)c2c(=O)n1-c1ccccc1,-1.08
6,Nc1ccn([C@@H]2CS[C@H](CO)O2)c(=O)n1 [Lamivudine],0.634
7,CCc1c(Cl)c(O)c(Cl)c(O)c1C(=O)O[C@H]1[C@H](O)[C@H](OC)[C@H](OC/C2=C\C=C\C[C@H](O)/C(C)=C/[C@H](CC)[C@@H](O[C@@H]3OC(C)(C)[C@@H](OC(=O)C(C)C)[C@H](O)[C@@H]3O)/C(C)=C/C(C)=C/C[C@@H]([C@@H](C)O)OC2=O)O[C@@H]1C [Fidaxomicin],0.133
8,Cc1cc(N)c2ccccc2[n+]1CCCCCCCCCC[n+]1c(C)cc(N)c2ccccc21 [Dequalinium chloride hydrate],-10.8
9,COc1ccccc1OCC(O)COC(N)=O (configuration not stated) [Methocarbamol],-0.688
10,Oc1cc2c(cc1O)C(c1ccccc1)CNCC2 (racemic),1.89
11,C[C@@H]1C(=O)NC2=Nc3cccc(Cl)c3CN21 [Quazinone],-1.61
12,COC(=O)Nc1nc2cc([S+]([O-])c3ccccc3)ccc2[nH]1 (configuration not stated) [Oxfendazole],-5.83
13,COc1cccc(C(=O)NCCN2CCN(c3ccc(Cl)cc3)CC2)c1,-2.1
14,NS(=O)(=O)c1ccc(-n2nc(C(F)(F)F)cc2-c2ccc(Cl)cc2)cc1,0.298
15,O=C(Nc1ccccc1)Nc1ccc(-c2ccc(C(=O)[C@@H]3CCC[C@H]3C(=O)O)cc2)cc1,-0.73
16,OC[C@@H](O)[C@@H](O)[C@@H](O)CO [Ribitol],0.0535
17,CN(C)C/C=C/C(=O)Nc1cc2c(Nc3ccc(F)c(Cl)c3)ncnc2cc1O[C@H]1CCOC1 [Afatinib (BIBW2992)],-25.6
18,CN1Cc2c(N)cccc2C(c2ccccc2)C1 (configuration not stated) [Nomifensine maleate],-1.48
19,O=C1NC(=O)C(=Cc2ccc(-c3ccc(F)cc3)o2)S1 (stereo in doubt),-1.17
20,CC(C)(O)c1ccccc1CC[C@@H](SCC1(CC(=O)O)CC1)c1cccc(/C=C/c2ccc3ccc(Cl)cc3n2)c1 [Montelukast Sodium],-0.0603
21,"O=C1NC(=O)C(c2ccccc2)(c2ccccc2)N1 [5,5-Diphenylhydantoin]",-0.846
22,O=C1NC(=O)C(c2ccccc2)(c2ccccc2)N1 [Phenytoin],-0.28
23,C#CCC(Cc1cnc2nc(N)nc(N)c2n1)c1ccc(C(=O)N[C@@H](CCC(=O)O)C(=O)O)cc1 (some centres not stated) [Pralatrexate],-1.12
24,O=C(C[S+]([O-])Cc1ccco1)NC/C=C\COc1cc(CN2CCCCC2)ccn1 (configuration not stated) [Lafutidine],2.6
25,CCN(CC)CCCC(C)Nc1nc(C)cc(Nc2ccc3nc(C)cc(N)c3c2)n1 (configuration not stated),1.62
